The values below come from article PMC4336329 (PLoS ONE, 2015).

Molecules are shown by their SMILES. About 14,000 (4.5%) of roughly 310,000 compounds showed an effect of 50% or more. Effects have a minus sign here. This is one part of the list.
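Further: peak tail current of the secondary pulse compared with the same well before compound.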

The target of this assay is human ether-à-go-go-related gene (hERG) potassium channel (human, UniProt Q12809). As to the kind of experiment: primary screen, population patch clamp on CHO cells stably expressing hERG.
human ether-à-go-go-related gene (hERG) potassium channel, sequence (Q12809 whole entry, looked up): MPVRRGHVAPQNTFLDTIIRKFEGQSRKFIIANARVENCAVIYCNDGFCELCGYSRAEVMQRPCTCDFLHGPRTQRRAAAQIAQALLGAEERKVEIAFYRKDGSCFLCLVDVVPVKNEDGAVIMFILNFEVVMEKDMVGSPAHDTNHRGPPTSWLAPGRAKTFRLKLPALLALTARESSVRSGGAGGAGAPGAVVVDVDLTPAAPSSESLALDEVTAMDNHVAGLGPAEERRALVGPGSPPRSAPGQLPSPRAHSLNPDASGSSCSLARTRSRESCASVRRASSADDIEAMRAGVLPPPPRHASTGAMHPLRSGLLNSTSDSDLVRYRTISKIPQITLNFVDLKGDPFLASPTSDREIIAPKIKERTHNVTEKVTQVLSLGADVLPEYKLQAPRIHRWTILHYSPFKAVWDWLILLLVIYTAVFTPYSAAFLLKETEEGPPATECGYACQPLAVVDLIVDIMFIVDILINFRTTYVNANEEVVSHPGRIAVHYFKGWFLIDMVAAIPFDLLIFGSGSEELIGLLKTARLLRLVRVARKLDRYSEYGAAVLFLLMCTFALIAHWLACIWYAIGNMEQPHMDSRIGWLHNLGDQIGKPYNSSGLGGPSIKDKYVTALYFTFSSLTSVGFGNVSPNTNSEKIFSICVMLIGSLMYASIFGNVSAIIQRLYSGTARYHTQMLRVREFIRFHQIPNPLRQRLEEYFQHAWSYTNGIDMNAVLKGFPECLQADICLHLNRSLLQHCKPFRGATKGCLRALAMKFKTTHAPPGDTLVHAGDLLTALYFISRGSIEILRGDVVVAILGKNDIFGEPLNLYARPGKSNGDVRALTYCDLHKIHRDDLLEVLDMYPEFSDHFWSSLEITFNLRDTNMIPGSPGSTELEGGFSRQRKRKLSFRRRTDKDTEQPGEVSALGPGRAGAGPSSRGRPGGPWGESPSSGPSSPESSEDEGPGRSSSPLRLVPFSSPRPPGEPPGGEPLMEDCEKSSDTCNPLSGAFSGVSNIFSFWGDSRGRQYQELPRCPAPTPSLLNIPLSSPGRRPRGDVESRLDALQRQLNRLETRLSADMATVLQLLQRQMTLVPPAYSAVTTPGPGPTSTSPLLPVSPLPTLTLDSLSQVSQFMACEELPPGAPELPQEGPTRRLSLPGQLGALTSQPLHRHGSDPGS
Turning to `Cc1ccc(C(=O)OCCn2cc(C#N)c(=O)[nH]c2=O)cc1`, the “hERG current change (%, negative = inhibition) at 10uM” value is 6.61%. Then `CSc1nccc(Oc2cncc(Cl)c2)n1`, with 8.61%; and `CCC(C)(C)NC(=O)CN(C(=O)CCC(=O)Nc1nccs1)c1ccc2c(c1)OCO2`, with -19%; and `COc1ccc(-n2c(CN3CCN(c4ccc(F)cc4)CC3)nc3ccc([N+](=O)[O-])cc3c2=O)c(OC)c1`, with -44.6%.

Take `C=CCc1ccc(OCC(O)COCC)c(OC)c1` (stereo not drawn): the “hERG current change (%, negative = inhibition) at 10uM” value is -3.56%. For the compound `O=C(/C=C/c1ccc(S(=O)(=O)N2CCOCC2)cc1)N1CCN(c2ccc(F)cc2)CC1`, the “hERG current change (%, negative = inhibition) at 10uM” value was -25.6%. Next, `CC(Sc1nnc(-c2cccs2)n1-c1ccccc1)C(=O)NCc1ccc2c(c1)OCO2` (stereo not drawn): -74.8%; `COc1ccc(CNCCc2cccc(F)c2)c2ccccc12.O=C(O)C(=O)O`: -74%. Next, `CCc1ccc(OCC2c3cc(OC)c(OC)cc3CCN2C(C)=O)cc1` (stereo not drawn): -11.5%; `O=S(=O)(Cc1cc(-c2ccccc2Cl)no1)c1ccccc1`: -51%; `COc1ccc(NS(=O)(=O)c2cccc(C(=O)NCC(c3ccco3)N3CCCC3)c2)cc1` (stereo not drawn): -36.8%. Then `CC(C)N1CCC(N2CCN(Cc3ccc4nonc4c3)CC2CCO)CC1` (stereo not drawn), with -27.5%; and `CCOc1cc(C(N)=O)cc(OCC)c1OCC`, with 8.44%; and `O=c1c2ccccc2nc(-c2ccccc2)n1CCN1CCOCC1`, with -6.34%. For the compound `COc1cccc(NC(=O)Cn2cc(C(=O)C3CC3)c3ccccc32)c1`, the “hERG current change (%, negative = inhibition) at 10uM” value worked out at 0.319%. Next, `CCS(=O)(=O)c1ccc(C(=O)Nc2ccccc2)c(Cl)c1Cl`: 9.75%; `Cc1c(Br)c([N+](=O)[O-])nn1CC(=O)Nc1sc2c(c1C(=O)OC(C)C)CCCC2`: -6.86%; `COCC(C)n1c(SCC(=O)Nc2nccs2)nc2ccccc2c1=O` (stereo not drawn): 14.5%.

As for `Cc1cccc(N2C(=O)c3ccc(Br)cc3C2=O)n1`, the “hERG current change (%, negative = inhibition) at 10uM” value is on record as -8.92%. Then `CNC(=S)N(CCc1c(C)[nH]c2ccc(C)cc12)Cc1ccco1`, with -12.1%; and `Cc1ccc(NS(=O)(=O)c2cccc(C(=O)NCC(c3ccc(F)cc3)N3CCOCC3)c2)cc1` (stereo not drawn), with -16.8%. Next, `CCOC(=O)c1c(C)[nH]c(C2=NNC(=Nc3ccccc3OC)SC2)c1C`: 2.99%; `O=C(CCN1C(=O)c2ccccc2C1=O)NCc1cccc(Cl)c1`: -42%; `Cc1cc(NC(=O)CSc2nnc(C3COc4ccccc4O3)n2N)no1` (stereo not drawn): 1.68%. Regarding `Cc1nn(-c2ccccc2)c(N)c1C(O)(CC(=O)C(F)(F)F)C(F)(F)F` (stereo not drawn), the “hERG current change (%, negative = inhibition) at 10uM” value came out at 7.54%. Then `CCCCOP(=O)(c1ccc(N(C)C)cc1)C(O)c1c(Cl)cccc1Cl` (stereo not drawn), with -18.9%. Then `Cc1cccc(CN2C(=O)/C(=C\c3ccc(C(=O)NCCCN4CCN(C)CC4)cc3)Oc3ccccc32)c1`, with -4.13%. Then `CC(NC(=O)Cn1nc(C(=O)O)c2ccccc2c1=O)C12CC3CC(CC(C3)C1)C2` (stereo not drawn), with -37.4%; and `CC1CN(S(=O)(=O)c2cccc(C(=O)NCc3ccco3)c2)CC(C)O1` (stereo not drawn), with -2.88%. Consider `CC(CCc1ccccc1)NC(=O)COC(=O)CC1CC2CCC1C2` (stereo not drawn), for which the “hERG current change (%, negative = inhibition) at 10uM” value was -6.07%. `COc1ccccc1Nc1nc(-c2cccc([N+](=O)[O-])c2)nc2ccccc12`: the “hERG current change (%, negative = inhibition) at 10uM” value is 0.938%.

On to `COc1cccc(/C=N/NC(=O)Cn2cnc3c2c(=O)n(C)c(=O)n3C)c1OC`, for which the “hERG current change (%, negative = inhibition) at 10uM” value is on record as 10.6%. Turning to `O=C(c1cnn2c(C(F)F)cc(C3CC3)nc12)N1CCCC1`, the “hERG current change (%, negative = inhibition) at 10uM” value was -4.75%. Then `O=C(CCc1ccccc1)Nc1cc2c3c(c1)CCC(=O)N3CCC2`, with -29.5%; and `CNC(=S)N/N=C/c1ccccc1Cl`, with 2.08%; and `Cc1nc2ccc(NC(=O)CCS(=O)(=O)c3ccccc3)cc2s1`, with 9.34%. Then `COC(=O)Cc1ccc(NC(=S)N2CCN(c3cccc(O)c3)CC2)cc1`, with 15.5%; and `Cc1ccc(CNC(=O)c2ccc3c(c2)NC(=O)C(N2CCOCC2)S3)cc1` (stereo not drawn), with -2.92%; and `Cc1ccc(C(=O)N/N=C\c2cccn2C)cn1`, with 22.4%. Then `COc1ccc(OC)c(NC(=O)COC(=O)Cc2ccc(-c3ccccc3)cc2)c1`, with -6.13%; and `CCCC(=O)Nc1ccc(-c2csc(-c3cccnc3)n2)cc1`, with -24.6%; and `CCOC(=O)c1csc(NC(=O)c2ccc(S(=O)(=O)N(C)C)cc2)n1`, with -20.9%.

Turning to `Cc1ccc(Cn2cc(C(=O)c3ccc(F)cc3)c(=O)c3cc4c(cc32)OCCO4)cc1`, the “hERG current change (%, negative = inhibition) at 10uM” value is recorded as -57.1%. Then `O=C(Nc1ccccc1)c1cc(Cl)nc2ccccc12`, with 10.5%.

Turning to `CC(=C\C(=O)O)/C(=C\c1cccc2ccccc12)C(=O)O`, the “hERG current change (%, negative = inhibition) at 10uM” value was 5.81%. Next, `Cc1cccc(NC(=O)/C(C#N)=C/c2ccc[nH]2)c1C`: 24.9%.

As for `O=C(CN(Cc1ccco1)C(=O)c1ccc(Cl)cc1)Nc1ccc(Cl)c(Cl)c1`, the “hERG current change (%, negative = inhibition) at 10uM” value is recorded as 1.39%. Next, `Cc1ccc(S(=O)(=O)Nc2ccccc2C(=O)N2CCCCC2C)c(C)c1NS(C)(=O)=O` (stereo not drawn): 13.3%; `O=C(NCc1ccccc1)c1c[nH]c2cc3c(cc2c1=O)OCCO3`: 2.64%. Then `O=C(Cc1ccccc1)N/N=C/c1cc(Br)c(Br)o1`, with 22.1%; and `COc1cc(NC(=O)c2ccc(C)cc2C)ccc1NC(=O)c1cc2ccccc2o1`, with 6.61%; and `COc1ccccc1C(=O)c1nc2ccccc2n1C`, with -10.4%. `CCn1c(SCC(=O)c2c[nH]c3ccccc23)nc2cc(S(=O)(=O)N3CCOCC3)ccc21`: the “hERG current change (%, negative = inhibition) at 10uM” value was found to be 9.49%. Next, `Cc1cccc2sc(NC(=O)C3CCN(C(=O)c4ccco4)CC3)nc12`: -71.6%; `COc1cccc(OCCn2cc(C(C)=O)c3ccccc32)c1`: 8.22%. Next, `COc1cc(C2C(C#N)=C(N)OC3=C2C(=O)CC(C)(C)C3)ccc1OC(=O)N1CCOCC1` (stereo not drawn): 5.32%; `COc1ccc(C(C)=O)cc1CSc1nnc(C)n1-c1ccccc1`: -0.582%. Next, `O=C(O)c1ccc(Cl)c(NC(=S)NC(=O)c2ccccc2[N+](=O)[O-])c1`: 14.4%.

For `Cc1ccc(-n2nc(C)cc2Nc2ncc(Cl)cc2Cl)cc1`, the “hERG current change (%, negative = inhibition) at 10uM” value is listed as -13.7%. Then `COC(=O)Cc1ccc(NC(=S)NCc2ccco2)cc1`, with 23.3%; and `CCc1cccc(NC(=O)CCNC(=O)Cn2ccc3ccccc3c2=O)c1`, with 12.7%; and `CCOc1cc(CN2CCN(C(=O)Cc3ccccc3)CC2)ccc1OC.O=C(O)C(=O)O`, with -37.6%. In the case of `COC(=O)c1cccc(NC(=S)Nc2cccc(Cl)c2Cl)c1`, the “hERG current change (%, negative = inhibition) at 10uM” value turned out to be 8.76%. Then `CCSc1cc(C2C(C(=O)OC)=C(C)NC3=C2C(=O)CCC3)c(C)o1` (stereo not drawn), with -12.6%; and `O=c1c2ccccc2c(-c2cccc(C(F)(F)F)c2)nn1-c1ccccc1`, with 2.53%. Then `Nc1ncnc2c1ncn2C1OC(CO)C(O)C1N` (stereo not drawn), with 0.612%; and `Brc1cccc(-c2nnc3n2CCC3)c1`, with 2.98%; and `Nc1ccn(Cc2cccc(Cl)c2)n1`, with 7.72%. Then `O=C(/C=C/c1ccc(OCCCF)cc1)N1CCOCC1`, with 1.61%.

`O=C(CCl)N1CCN(S(=O)(=O)c2ccc3c(c2)OCCCO3)CC1`: the “hERG current change (%, negative = inhibition) at 10uM” value came out at 1.32%.

As for `CC(NC(=O)CN(C)S(=O)(=O)c1ccc(F)cc1)C1CC2CCC1C2` (stereo not drawn), the “hERG current change (%, negative = inhibition) at 10uM” value is listed as -2.34%. Next, `COc1cccc(NC(=O)c2ccc(NCCCN3CCC(C)CC3)c([N+](=O)[O-])c2)c1`: -56.2%.

With `Cc1ccc(NC(=O)/C(=C/c2cccc(Br)c2)NC(=O)c2ccco2)cc1`, the “hERG current change (%, negative = inhibition) at 10uM” value was -28.1%. Then `Cc1cccn2c(=O)c(/C=C(\C#N)C(N)=O)c(N3CCN(c4cccc(Cl)c4)CC3)nc12`, with -20.5%; and `Cc1cc(N2CCOCC2)nc2ccc(NC(=S)N3CCN(c4ccccc4)CC3)cc12`, with 6.12%; and `O=C(COc1ccc(F)cc1)N1CCc2ccccc2C1`, with -21.7%. Next, `Cc1c(NC(=O)c2cccs2)cccc1-c1nc2ccccc2s1`: 5.28%; `O=C(NC1=NCCS1)NC12CC3CC(CC(C3)C1)C2`: 4.6%; `CCCCn1c(=O)c(C(=O)Nc2cnccn2)c(O)c2ccccc21`: 13.6%. Next, `O=C1C2CC=CCC2C(=O)N1c1ccc(NCCc2ccccc2F)c([N+](=O)[O-])c1` (stereo not drawn): 11.7%. Turning to `CCc1ccc(CNC(=O)C(=O)NCCc2ccc(OC)c(OC)c2)cc1`, the “hERG current change (%, negative = inhibition) at 10uM” value is 4.53%. Then `Cc1ccc(S(=O)(=O)N2CCCCC2)cc1C(=O)N(C)CCOc1ccccc1`, with -48%; and `CC(=O)c1ccc(Sc2ccc(C(C)=O)cc2)cc1`, with -26%. Turning to `COc1ccccc1OCC(=O)Nc1cc(C(F)(F)F)ccc1-n1cncn1`, the “hERG current change (%, negative = inhibition) at 10uM” value is on record as -19.5%. Then `CCCCCCc1nnc(N)s1`, with -0.995%. Next, `Cc1ccc(S(=O)(=O)NCC(C)n2nc(C)nc2C)cc1` (stereo not drawn): -0.542%; `COc1ccc(CCNC(=O)CSc2nnc(-c3ccc(F)cc3)o2)cc1OC`: 0.28%.
